# The supplement of paper PMC10126150
# Values marked as one replicate rest on one cluster of the flow cell; about a third of the high ones do not repeat.
# System: ATP
# Experiment: switch fluorescence ratio, 500 uM ATP over buffer (Cy3 cluster intensity, sum of 5 cycles each) (fold (ratio)); higher = stronger signal-on switching upon ATP binding; sequences stand for … in TCGTCGGCAGCGTCAGATGTGTATAAGAGACAGTTTTTTTTTTTTTTTTTTTTTTTTT…TC
# Conditions: aptamer strand: ATP DNA aptamer (quencher-CACCTGGGGGAGTATTGCGGAGGAAGG + anchor), 100 nM annealed; ATP concentration: 500 uM; one replicate
# How it was run: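 Cy3-labelled switching-strand clusters on a modified Illumina MiSeq flow-cell were annealed to 100 nM quencher-labelled ATP aptamer, imaged in selection buffer, then imaged after 15 min with 500 uM ATP at 22 °C. Five buffer/ATP cycles ran, with NaOH stripping and re-annealing between them. The fluorescence ratio is summed target-cycle over summed buffer-cycle Cy3 intensity per cluster, averaged per switch-domain sequence. Clusters outside 100-1000 RFU were excluded.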
# 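Also: ATP exposure 15 min at 22 °C before imaging.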
row,Sequence,switch fluorescence ratio
1,ACTGTAACCT,1.65
2,CTCTAGTGTG,1.01
3,GCCTAAGGTT,0.98
4,CTACATGGTC,1
5,ACGAGTGCAG,1.05
6,GTCGAAAAGA,1
7,ACAAACGCAC,1.71
8,ATCGTTTACC,1.03
9,CGGTCTAGT,0.996
10,AGACGGTG,1
11,CGGTAGAAAG,1.53
12,CGTATACCCC,1.25
13,GTGGCCAATA,0.991
14,CCATCAGGGT,1.07
15,GCTATAGCGG,0.996
16,GACGCCGAC,1.82
17,CCTTGAGTCG,1.01
18,TTCGCTTTAA,1.04
19,CGTGGTGACT,0.953
20,GCTGCGGTA,1.03
21,CACGACGCTG,1.53
22,GTTTTTGGCA,0.982
23,CTTGGTTGTG,0.984
24,TTTGACGAAA,1.04
25,ACCAACGTGG,1.09
26,ATGTGGACGA,0.97

row,Sequence,switch fluorescence ratio
1,AAGCAAGTCC,1.38
2,ATTGTCTCAA,1.01
3,ACAAAAAAAT,1.01
4,AAGGACGGGA,1.05
5,AAATAATAGC,1.02
6,CTGGTTGTTT,0.989
7,TCGAAGTAAC,1.56
8,TGAGAGCTCG,0.999
9,ATTTGACATC,1.02
10,AATGTCATTA,0.973
11,TGTGAGGGAA,1.04
12,ATTAAACATT,1.03
13,AGATTGGTCG,0.914
14,CCGGGCCAAA,1.49
15,ATATATTGT,1.02
16,TGTGGTGGTT,0.973
17,CCGGTTCTAA,1.03
18,AGTTTTATGG,0.968
19,TTGAGAGTGT,0.967
20,GGCTTGGC,1.06
21,CTTTTACCGA,1
22,TAAGGTTGCT,0.991
23,AAGGTTATA,1.05
24,AGGTCGGGGT,0.992
25,GCTTAGATAT,1.01
26,GCACCCCCTA,1.31

row,Sequence,switch fluorescence ratio
1,AAGTTTACAA,1.01
2,TAAACCCTCG,1.06
3,CCCTTCCTTG,1.73
4,CTTTAAAGTG,0.976
5,GTTGGGTAG,0.995
6,GGCGCAAGAG,4.89
7,TAGTCCGTTC,0.974
8,TGTGATCACC,0.971
9,AGCGCTTTCG,1.01
10,TTTGCTA,1.03
11,GGCCATAATG,1.04
12,TTCTCACGCT,1.17
13,GAAGAGGGAA,0.975
14,GCGAATTTAT,0.978
15,CGGGAGTTGC,1.01
16,TGGAGTGAGT,0.99
17,ACTTCTATA,1.08
18,GCAATCTTAA,1.1
19,GCCCAGTCAC,1.09
20,AGGTAGAGG,1.05
21,TACAGCGCAA,1.23
22,TTTTCTCAGA,1.07
23,GAAAGACCAT,0.98
24,TCTCATGTCC,0.97
25,GCGGTAGCGG,1.03
26,TTAAGGTGCT,1.16

row,Sequence,switch fluorescence ratio
1,CGAAGGAGGT,1.04
2,TTCATGAAGA,0.975
3,TGGGTTGCGC,1.01
4,TCAGACCAAC,1.18
5,GAGATTTTAC,1.02
6,AGGGGGACAA,0.947
7,TTACCACGCC,1.17
8,ATATCCTCAA,1.05
9,TGCCGGACAG,1.04
10,TTCTGTTCAG,1
11,ACCGATATTT,0.989
12,GGACTCATTA,1
13,GAGCGAGCTA,1.05
14,ATGACTTGAT,0.989
15,GATTGATCTC,0.972
16,GTTTGCTCTA,0.94
17,CAAGTACCGC,1.23
18,TGTCTACTAT,0.977
19,ATAAACTACG,1.05
20,ATATGTGTAG,0.99
21,GCCAGGCAAA,1.06
22,TATGGCAGAG,0.975
23,GGTGTAGCTC,1
